Data on 57 compounds can be found in PMC13083723 (Patterns, 2026).

Hit rate of the full screen: of about 5,400 compounds, about 190 (3.5%) showed an effect of 50% or more. The list shows a part of the results.

The test system of the assay is Vero-E6. The assay is described as follows: primary screen, phospholipidosis by LipidTOX staining; higher = more effect of the substance. To be noted: 10 µM. An outline of the steps: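 Single-concentration screen at 10 μM, with DMSO 0.1 v/v % and amiodarone 10 μM as controls. Read-out is LipidTOX Red phospholipid staining, which tolerates aldehyde fixation, in Vero-E6 cells.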
For `O=C(/C=C/c1cccnc1)NCCCCC1CCN(C(=O)c2ccccc2)CC1`, the result_ITMP was 1.91%. Then `COc1ccccc1CN[C@H]1CCCN[C@H]1c1ccccc1`, with 18.8%; and `CC(C)C[C@H](NC(=O)OCC1c2ccccc2-c2ccccc21)C(=O)O`, with -1.06%.

For `O=C(CSc1nc2c(c(=O)n1-c1ccccc1)SCC2)Nc1ccc(-c2ccccc2)cn1`, the result_ITMP stood at 3.58%. In the case of `CC(C)NC[C@@H](O)COc1cccc2ccccc12` [R4A_0000150_002 / SPE_K13994703] it was 20.2%; in that of `COC(=O)c1cc(OC)c2c(c1-c1c(C(=O)OC)cc(OC)c3c1OCO3)OCO2`, -5.43%; in that of `CCNC1(C(N)=O)CCN(c2ncnc3c2nc(-c2ccccc2Cl)n3-c2ccc(Cl)cc2)CC1`, 24.7%. On to `COc1ccc(C2Sc3ccccc3N(CCN(C)C)C(=O)C2OC(C)=O)cc1` (stereo not drawn), for which the result_ITMP is -2.48%. Consider `O=C(Nc1ccccc1)C12CC1/C(=N\O)c1ccccc1O2` (stereo not drawn), for which the result_ITMP was -1.82%. Turning to `CC(=O)Oc1ccc(C(c2ccc(OC(C)=O)cc2)c2ccccn2)cc1`, the result_ITMP is on record as -5.23%. As for `CCOC(=O)CC(=O)N1CCSC1COc1ccccc1OC` (stereo not drawn), the result_ITMP turned out to be 2.87%. In the case of `N[C@@H](CC(=O)N1CCn2c(nnc2C(F)(F)F)C1)Cc1n[nH]c2c(F)c(F)ccc12` it was -2.29%; in that of `C[N+]1(C)C2CCC1CC(OC(=O)C(CO)c1ccccc1)C2` (stereo not drawn), 8%. With `O=[N+]([O-])c1ccc(O)c2ncccc12`, the result_ITMP is 26%. Take `N#CC[C@H](C1CCCC1)n1cc(-c2ncnc3[nH]ccc23)cn1`: the result_ITMP is -4.27%. For `CS/C(N)=C(C#N)/C(C#N)=C(\N)SC`, the result_ITMP is given as -2.12%.

As to `CCCc1nn(C)c2c(=O)[nH]c(-c3cc(S(=O)(=O)N4CCN(C)CC4)ccc3OCC)nc12`, the result_ITMP stood at 1.5%. On to `C[N+](C)(C)CC(=O)[O-]`, for which the result_ITMP is reported as -1.21%.

Take `CCCCOC(=O)c1cc2c(cn1)[nH]c1ccccc12`: the result_ITMP is given as -1.41%. Then `COc1cc(NC(=O)Nc2cccc(CNC(=O)O[C@H]3CCOC3)c2)ccc1-c1cnco1`, with 0.33%. For the compound `CN(C[C@@H]1COCCO1)S(=O)(=O)Nc1ccc2ccc3ncc(-c4cnn(C)c4)cc3c(=O)c2c1`, the result_ITMP is 8.06%. In the case of `Cc1c(C(=O)N2CCOc3ccc(-c4ccc(N)nc4)cc3C2)ccc(S(C)(=O)=O)c1F`, the result_ITMP is given as 3.13%. Take `c1ccc2c(c1)Nc1ccccc1S2`: the result_ITMP was -3.65%. For `CCCNC(C)(C)COC(=O)c1ccccc1`, the result_ITMP worked out at 0.66%. Take `N=C(NCCC[C@H](N)C(=O)O)N[N+](=O)[O-]`: the result_ITMP is on record as 1.32%.

With `Nc1nc(=O)c2c(CCc3ccc(C(=O)N[C@@H](CCC(=O)[O-])C(=O)[O-])cc3)c[nH]c2[nH]1`, the result_ITMP is listed as -3.84%.

For the compound `CSc1nc(N)cc(Oc2ccc(-c3nnc(Nc4cccc(C(F)(F)F)c4)[nH]3)cc2)n1`, the result_ITMP is reported as -0.92%. In the case of `NC(Cc1ccc(Cl)cc1)C(=O)O` (racemic) it was -7.04%; in that of `CC(NCCc1ccc(O)cc1)C(O)c1ccc(O)cc1` (stereo not drawn), -3.41%; in that of `CCC1(C)CC(=O)NC1=O` (stereo not drawn), -6.19%. Consider `CC(=O)Nc1ccc(OC(C)=O)cc1`, for which the result_ITMP is recorded as -3.07%.

In the case of `NC1CCN(c2c(F)cc3c(=O)c(C(=O)O)cn(C4CC4)c3c2Cl)C1` (stereo not drawn), the result_ITMP is on record as -1.64%. Regarding `CC(C)(O)CC(=O)NCCn1ccc2ncnc(Nc3ccc(Oc4cccc(C(F)(F)F)c4)c(Cl)c3)c21`, the result_ITMP is listed as 19%. As to `O[C@H]1[C@H]2[C@H](O)CCCN2C[C@H]1O`, the result_ITMP turned out to be 0.57%. In the case of `Cc1ccc(/N=C/N(C)/C=N/c2ccc(C)cc2C)c(C)c1`, the result_ITMP came to 1.63%. Turning to `COc1ccn2ncc(-c3nc4[nH]nc(NC(=O)c5ccc(F)cc5)c4cc3F)c2c1`, the result_ITMP is reported as -4.3%. For `CC(C)c1cnn2c(NCc3ccccc3)cc(NCCCCCCN)nc12`, the result_ITMP is recorded as 53.6%. Turning to `CC[C@]1(O)C[C@H]2C[N@](CCc3c([nH]c4ccccc34)[C@@](C(=O)OC)(c3cc4c(cc3OC)N(C)[C@H]3[C@@](O)(C(N)=O)[C@H](O)[C@]5(CC)C=CCN6CC[C@]43[C@@H]65)C2)C1`, the result_ITMP worked out at 9.74%. In the case of `CCCN(CCC)C1Cc2cc(OC)c(OC)cc2C1`, the result_ITMP is -1.54%. On to `CCc1nn(CCCN2CCN(c3cccc(Cl)c3)CC2)c(=O)n1CCOc1ccccc1`, for which the result_ITMP is listed as 6.52%. Then `O=S(=O)(c1cccc2cnccc12)N1CCCNCC1`, with 0.23%; and `O=C(c1ccc(F)c(F)c1Nc1ccc(I)cc1F)N1CC(O)([C@@H]2CCCCN2)C1`, with 78.8%; and `O=c1c2ccccc2[se]n1-c1ccccc1`, with -2.68%. For `COc1ncc(-c2ccc3c(Nc4cc(Oc5cc(F)cc(F)c5)cc(C(=O)O)c4)c(S(=O)(=O)NC4CC4)cnc3c2)c(OC)n1`, the result_ITMP is on record as -9.8%. As to `OCCN1CCN(CC/C=C2/c3ccccc3Sc3ccc(Cl)cc32)CC1`, the result_ITMP is on record as 17.9%. Turning to `CN1c2ccccc2C(=O)N2CCc3c([nH]c4ccccc34)C21` (stereo not drawn), the result_ITMP amounted to 8.12%. `CC[C@H]1[C@@H](O)[C@@H]2[C@H](CC[C@]3(C)[C@@H]([C@H](C)CCOS(=O)(=O)[O-])CC[C@@H]23)[C@@]2(C)CC[C@@H](O)C[C@@H]12`: the result_ITMP is listed as -1.93%. In the case of `NCCCS(=O)(=O)O` it was -2%; in that of `Nc1nc(/C(=C/CC(=O)O)C(=O)N[C@@H]2C(=O)N3C(C(=O)O)=CCS[C@H]23)cs1`, -2.36%; in that of `CCCC[C@H](NC(=O)[C@@H]1[C@@H]2[C@H](CN1C(=O)[C@@H](NC(=O)NC1(CS(=O)(=O)C(C)(C)C)CCCCC1)C(C)(C)C)C2(C)C)C(=O)C(=O)NC1CC1`, -1.27%. As for `N#Cc1cccc(-c2nc(-c3cccnc3)no2)c1`, the result_ITMP is -5.61%. Then `C=CCN1CCc2cc(O)c(O)cc2C(c2ccccc2)C1` (stereo not drawn), with -1.01%. On to `O=C(NCCCCCCNC(=O)ON=C1CCCCC1)ON=C1CCCCC1`, for which the result_ITMP is listed as -6.95%.

Regarding `CC(C)[C@H](O)C(=O)N[C@@H](C)C(=O)N[C@@H]1C(=O)N(C)CCc2ccccc21`, the result_ITMP is recorded as -2.24%. In the case of `CN(C)CCC(c1ccc(Cl)cc1)c1ccccn1` (stereo not drawn) [R4A_0004036_001 / SPE_A04553218] it was 16%. For the compound `O=C(O)C(=O)c1cn(Cc2ccccc2)c2ccc(-c3ccc(OC(F)(F)F)cc3)cc12`, the result_ITMP is 0.43%. With `NS(=O)(=O)c1nn2cc(-c3ccccc3)nc2s1`, the result_ITMP is 0.23%.
